# Data as given in patent US20210017279A1 (NANJING LEGEND BIOTECH, published 2021).
# T1: Human LAG-3-His (human, UniProt P18627 29-450)
# T1 construct: Bought recombinant protein; also called Human LAG-3 protein (Acrobiosystem, 772-6BGF2-D5); not shown: His tag
# T1 sequence: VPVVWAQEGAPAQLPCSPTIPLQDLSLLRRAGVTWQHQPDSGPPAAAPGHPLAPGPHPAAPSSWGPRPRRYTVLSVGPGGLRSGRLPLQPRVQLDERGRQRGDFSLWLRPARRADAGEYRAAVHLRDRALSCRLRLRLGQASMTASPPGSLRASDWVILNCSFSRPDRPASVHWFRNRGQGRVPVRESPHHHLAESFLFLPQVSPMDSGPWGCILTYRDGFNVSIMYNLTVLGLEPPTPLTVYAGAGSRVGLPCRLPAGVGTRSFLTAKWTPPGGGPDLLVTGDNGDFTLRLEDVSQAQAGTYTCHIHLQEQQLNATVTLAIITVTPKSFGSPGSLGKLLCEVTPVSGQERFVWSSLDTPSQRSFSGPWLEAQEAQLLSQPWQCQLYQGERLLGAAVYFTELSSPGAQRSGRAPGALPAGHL
# T2: human LAG-3 expressed on CHO-K1 cells (human, UniProt P18627 29-525)
# T2 construct: also called CHO-huLAG-3 cells; LAG-3 expressed on CHO cells
# T2 sequence: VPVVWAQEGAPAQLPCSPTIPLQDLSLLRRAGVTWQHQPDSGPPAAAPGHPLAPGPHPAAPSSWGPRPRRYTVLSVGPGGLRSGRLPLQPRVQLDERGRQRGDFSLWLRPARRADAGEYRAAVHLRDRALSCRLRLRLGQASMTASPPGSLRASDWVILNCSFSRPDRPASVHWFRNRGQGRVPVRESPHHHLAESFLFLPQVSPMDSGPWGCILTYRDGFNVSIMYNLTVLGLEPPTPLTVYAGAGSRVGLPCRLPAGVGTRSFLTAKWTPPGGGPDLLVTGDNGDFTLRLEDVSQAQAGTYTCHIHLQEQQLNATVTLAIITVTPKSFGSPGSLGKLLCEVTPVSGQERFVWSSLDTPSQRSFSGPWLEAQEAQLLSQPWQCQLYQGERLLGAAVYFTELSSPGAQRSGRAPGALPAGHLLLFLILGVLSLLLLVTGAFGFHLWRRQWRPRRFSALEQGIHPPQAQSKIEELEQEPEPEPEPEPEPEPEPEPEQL
# T3: LAG-3-Fc (human, UniProt P18627 29-450, biotinylated (in the blocking assays))
# T3 construct: Recombinant LAG-3-Fc (Acrobiosystems / R&D Systems); also called biotinylated LAG-3-Fc protein; not shown: Fc part
# T3 sequence: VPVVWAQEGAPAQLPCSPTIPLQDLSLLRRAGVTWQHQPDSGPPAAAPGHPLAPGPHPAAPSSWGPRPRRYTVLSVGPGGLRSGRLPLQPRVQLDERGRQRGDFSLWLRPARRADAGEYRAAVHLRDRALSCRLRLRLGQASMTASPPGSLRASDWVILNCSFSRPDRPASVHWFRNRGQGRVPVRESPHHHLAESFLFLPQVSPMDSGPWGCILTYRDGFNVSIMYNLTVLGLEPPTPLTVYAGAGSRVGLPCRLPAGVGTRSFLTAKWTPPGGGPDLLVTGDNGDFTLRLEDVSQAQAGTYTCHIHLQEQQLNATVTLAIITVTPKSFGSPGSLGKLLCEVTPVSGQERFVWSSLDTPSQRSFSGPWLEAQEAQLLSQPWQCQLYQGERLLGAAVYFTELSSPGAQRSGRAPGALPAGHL
# Tests used:
# [1] = biological target: LAG-3 on Thaw-and-Use LAG-3 Effector cells; test: cell-based or functional assay
# Human LAG-3-His [2] = biological target: T1, Human LAG-3-His; test: SPR (Biacore T200), as in Example 3; Experiment 1
# [3] = biological target: T2, human LAG-3 expressed on CHO-K1 cells; test: flow cytometry on CHO-K1 cells expressing human LAG-3
# Description: (§1) To determine cell binding EC₅₀, CHO-K1 cells expressing human or cynomolgus LAG-3 were harvested and incubated with anti-LAG-3 sdAb-Fc fusion proteins at gradient concentrations, followed by fluorophore-labeled secondary antibodies against human Fc. […] The samples were then analyzed with flow cytometry. The binding and blocking curves were shown in FIG. 4 and FIG. 5, respectively.
# [4] = biological target: T4, cynomolgus LAG-3 expressed on CHO-K1 cells (cynomolgus); test: flow cytometry on CHO-K1 cells expressing cynomolgus LAG-3
# T4 construct: whole, on cells
# Description: as §1
# [5] = biological target: T2, human LAG-3 expressed on CHO-K1 cells; test: flow cytometry on CHO cells expressing LAG-3; Experiment 1
# Human LAG-3-His [6] = biological target: T1, Human LAG-3-His; test: SPR (Biacore T200); antibody captured on chip, LAG-3 injected
# Cynomolgus LAG-3-Fc [7] = biological target: T5, Cynomolgus LAG-3-Fc (cynomolgus); test: as above
# T5 construct: Bought recombinant protein; also called cynomolgus LAG-3 protein (Acrobiosystem, 2187-71HF1-DZ)
# LAG-3-Fc [8] = biological target: T3, LAG-3-Fc; test: flow cytometry competition; blocks biotinylated LAG-3-Fc binding to MHC II on A375 cells
# Description: as §1
# LAG-3-Fc [9] = biological target: T3, LAG-3-Fc; test: flow cytometry competition; blocks LAG-3-Fc binding to MHC II on A375 cells; Experiment 1
# LAG-3-Fc [10] = biological target: T3, LAG-3-Fc; test: flow cytometry competition; span of the blocking curve, LAG-3-Fc binding to MHC II on A375 cells
# Description: as §1
# [11] = biological target: LAG-3 on Thaw-and-Use LAG-3 Effector cells; test: cell-based or functional assay; remark: listed apart in the source
# Human LAG-3-His [12] = biological target: T1, Human LAG-3-His; test: SPR (Biacore T200), as in Example 3; Experiment 2
# [13] = biological target: T2, human LAG-3 expressed on CHO-K1 cells; test: flow cytometry on CHO cells expressing LAG-3; Experiment 2
# Description: as §1
# Human LAG-3-His [14] = biological target: T1, Human LAG-3-His; test: SPR (Biacore T200); antibody captured on chip, human LAG-3 injected
# Cynomolgus LAG-3-Fc [15] = biological target: T5, Cynomolgus LAG-3-Fc; test: SPR (Biacore T200); cynomolgus LAG-3 immobilized, antibody injected
# LAG-3-Fc [16] = biological target: T3, LAG-3-Fc; test: flow cytometry competition; blocks LAG-3-Fc binding to MHC II on A375 cells; Experiment 2
LAG-3 blockade reporter assay EC50 [1] [nM],EC50 [3] [nM],EC50 [4] [nM],EC50 [5] [nM],Kd (Human LAG-3-His [6]) [nM],koff (Human LAG-3-His [6]) [s⁻¹],kon (Human LAG-3-His [6]) [M⁻¹ s⁻¹],Kd (Cynomolgus LAG-3-Fc [7]) [nM],koff (Cynomolgus LAG-3-Fc [7]) [s⁻¹],kon (Cynomolgus LAG-3-Fc [7]) [M⁻¹ s⁻¹],EC50 (LAG-3-Fc [8]) [nM],EC50 (LAG-3-Fc [9]) [nM],Span (LAG-3-Fc [10]),LAG-3 blockade reporter assay EC50 [11] [nM],LAG-3 blockade reporter assay Signal span (% activation) [11] [% activation],Kd (Human LAG-3-His [12]) [nM],EC50 [13] [nM],Kd (Human LAG-3-His [14]) [nM],koff (Human LAG-3-His [14]) [s⁻¹],kon (Human LAG-3-His [14]) [M⁻¹ s⁻¹],Binder,other results
1.99,0.462,1.23,0.342,0.067,0.00015,2.2e+06,0.042,0.00022,5.4e+06,3.72,0.802,355,–,–,–,–,–,–,–,"AS20846-Fc (Fc fusion, also called AS20846 HCAb; non-humanized anti-LAG-3 sdAb-Fc fusion protein) QVHLMESGGGSVQVGGSLRLSCAASGYTVSSYCMGWFRQAPGKEREGVAAIDSDGSVSYADSVKGRFTISKDNAKNTLYLQMNSLKPEDTAMYFCAADLCWVDQDQGEYNTWGQGTQVTVSS[letters of human IgG4 Fc with S228P (EU numbers) omitted]",Kd (Human LAG-3-His [2]): 0.067 nM
3.12,–,–,–,–,–,–,–,–,–,–,–,–,3.13,83.3,0.46,12.4,0.46,0.0006,1.3e+06,"AS20846VH12-Fc (Fc fusion, also called AS20846VH12 HCAb; humanized anti-LAG-3 sdAb-Fc fusion protein) EVQLVESGGGLVQPGGSLRLSCAASGYTVSSYCMGWFRQAPGKGREGVSAIDSDGSVSYADSVKGRFTISKDNSKNTLYLQMNSLRAEDTAVYFCAADLCWVDQDQGEYNTWGQGTLVTVSS[letters of human IgG4 Fc with S228P (EU numbers) omitted]",Kd (Cynomolgus LAG-3-Fc [15]): 49 nM; koff (Cynomolgus LAG-3-Fc [15]): 0.0015 s⁻¹; kon (Cynomolgus LAG-3-Fc [15]): 31000 M⁻¹ s⁻¹; EC50 (LAG-3-Fc [16]): 48.8 nM
2.33,0.686,1.83,1.24,0.11,0.00022,2.1e+06,0.093,0.00042,4.5e+06,5.54,0.781,233,–,–,–,–,–,–,–,"AS20592-Fc (Fc fusion, also called AS20592 HCAb; non-humanized anti-LAG-3 sdAb-Fc fusion protein) EVQLVESGGGSVQAGGSLRLSCAASGYIISSYCMGWFRQAPGKEREGVAAIDSDGGTSYADSVKGRFTISKDNAKNTLYLQMDSLKPEDTAMYYCAADFCWVDEDRHLYEYNSWGQGTQVTVSS[letters of human IgG4 Fc with S228P (EU numbers) omitted]",–
–,–,–,–,–,–,–,–,–,–,–,–,–,0.89,92,0.47,10.5,0.47,0.00065,1.4e+06,"AS20592VH10-Fc (Fc fusion, also called AS20592VH10 HCAb; humanized anti-LAG-3 sdAb-Fc fusion protein) EVQLVESGGGLVQPGGSLRLSCAASGYIISSYCMGWFRQAPGKGLEGVAAIDSDGGTSYADSVKGRFTISKDNSKNTLYLQMNSLRAEDTAMYYCAADFCWVDEDRHLYEYNSWGQGTLVTVSS[letters of human IgG4 Fc with S228P (EU numbers) omitted]",Kd (Cynomolgus LAG-3-Fc [15]): 39 nM; koff (Cynomolgus LAG-3-Fc [15]): 0.0015 s⁻¹; kon (Cynomolgus LAG-3-Fc [15]): 37000 M⁻¹ s⁻¹; EC50 (LAG-3-Fc [16]): 47.4 nM

# Where two headings read alike, the source gives them in different places.
